The antibiotic and cytotoxicity screens of Wong et al. (2023)
This is one part of the list.

Test system: HSkMC (human skeletal muscle cells)
Assay: cytotoxicity call (relative viability < 0.9)
Conditions: 10 µM

Compound	cytotoxicity call
COc1ccc(NC(=O)N(C)C[C@@H]2Oc3ccc(NC(=O)Cn4cnnn4)cc3C(=O)N([C@@H](C)CO)C[C@@H]2C)cc1	inactive
C[C@H]1CCCCO[C@H](CN(C)Cc2ccc(C(F)(F)F)cc2)[C@@H](C)CN([C@@H](C)CO)C(=O)c2cc(NC(=O)Nc3cccc4ccccc34)ccc2O1	inactive
C[C@@H]1CN([C@H](C)CO)S(=O)(=O)c2ccc(C#CC3(O)CCCC3)cc2O[C@H]1CN(C)C(=O)Nc1ccc(F)cc1	inactive
C[C@@H]1CCCCO[C@@H](CN(C)C(=O)Nc2ccc(F)cc2)[C@@H](C)CN([C@@H](C)CO)C(=O)c2cc(NC(=O)Cc3ccccc3)ccc2O1	inactive
C[C@@H]1CN([C@@H](C)CO)C(=O)Cc2cc(NC(=O)NC3CCCCC3)ccc2O[C@H]1CN(C)S(C)(=O)=O	inactive
Cn1c(CNc2ccccc2)cc(=O)n(C)c1=O	inactive
C[C@@H]1CN([C@H](C)CO)C(=O)CCCn2nncc2CO[C@@H]1CN(C)C(=O)c1cc(-c2ccccc2)on1	inactive
C[C@H]1CN([C@@H](C)CO)C(=O)c2cc(NC(=O)c3ccncc3)ccc2O[C@H]1CN(C)Cc1ccc(Oc2ccccc2)cc1	inactive
CC(=O)NCc1nccc(N2CCCC2)n1	inactive
Cc1ccc(S(=O)(=O)N(C)C[C@@H]2Oc3ccc(NS(=O)(=O)c4c(C)noc4C)cc3C(=O)N([C@@H](C)CO)C[C@@H]2C)cc1	inactive
C[C@H](CO)N1C[C@H](C)[C@H](CN(C)C(=O)Nc2ccc(F)cc2)OCCCC[C@H](C)Oc2ccc(NS(=O)(=O)c3cccs3)cc2C1=O	inactive
C[C@@H]1CCCCO[C@H](CN(C)C(=O)Nc2cccc3ccccc23)[C@H](C)CN([C@H](C)CO)C(=O)c2cc(NS(=O)(=O)c3cn(C)cn3)ccc2O1	active
C[C@H]1CN([C@@H](C)CO)C(=O)c2cccc(NS(=O)(=O)c3cn(C)cn3)c2O[C@H]1CN(C)CC1CC1	inactive
C[C@H](CO)N1C[C@H](C)[C@H](CN(C)Cc2ccc3c(c2)OCCN3C)OCc2cn(nn2)CCCC1=O	inactive
C[C@@H]1CN([C@@H](C)CO)C(=O)c2cc(NC(=O)Cc3cn(C)c4ccccc34)ccc2O[C@@H]1CN(C)CC1CCCCC1	inactive
NCc1ccccc1CN1CCOCC1	inactive
COc1ccc2c3c(n(c2c1)C)[C@H](CO)N(C[C@]13CCN(CC1)C(=O)c1ccncc1)C(=O)c1cnccn1	inactive
COc1ccc(S(=O)(=O)N(C)C[C@@H]2Oc3ccc(NC(=O)Nc4c(C)noc4C)cc3CC(=O)N([C@@H](C)CO)C[C@@H]2C)cc1	inactive
CC(C)NC(=O)Nc1ccc2c(c1)C(=O)N([C@H](C)CO)C[C@H](C)[C@H](CN(C)C(=O)C1CCCCC1)OCCCC[C@@H](C)O2	inactive
C[C@@H]1CCCCO[C@H](CN(C)C(=O)Cc2ccccc2)[C@@H](C)CN([C@@H](C)CO)C(=O)c2cc(NC(=O)NC3CCCCC3)ccc2O1	inactive

Compound	cytotoxicity call
C[C@@H]1CN([C@@H](C)CO)C(=O)c2cccc(NC(=O)c3cnccn3)c2O[C@H]1CN(C)Cc1ccc(C(=O)O)cc1	inactive
C[C@@H]1CN([C@@H](C)CO)C(=O)c2cc(C#Cc3ccc(F)cc3)cnc2O[C@H]1CN(C)CC1CCOCC1	inactive
S=C(c1cccs1)N1CCCC1	inactive
CC(C)N1C[C@@H](C)[C@H](CN(C)Cc2ccc(Oc3ccccc3)cc2)Oc2c(C(=O)O)cccc2C1=O	inactive
COc1ccc2c(c(Br)c(C(=O)O)n2CCCOc2cccc3ccccc23)c1-c1ccccc1C	inactive
CNC(=O)C[C@@H]1CC[C@@H]2[C@H](COC[C@H](O)CN2C(=O)Nc2cccc(OC)c2)O1	inactive
CN(C)C(=O)CN1CCC2(CC1)O[C@H](C(=O)NCc1ccccn1)Cn1ccnc12	inactive
C[C@@H]1CCCCO[C@@H](CN(C)Cc2ccc(C(=O)Nc3ccccc3N)cc2)[C@@H](C)CN([C@H](C)CO)C(=O)c2cc(NS(=O)(=O)c3cccs3)ccc2O1	inactive
C[C@H]1CN([C@@H](C)CO)C(=O)c2cccc(NC(=O)c3nc4ccccc4s3)c2O[C@@H]1CN(C)C(=O)Nc1ccc(C(F)(F)F)cc1	inactive
Cc1cc(C)c2nc(-c3ccccn3)cc(C(=O)Nc3ccc(S(=O)(=O)Nc4onc(C)c4C)cc3)c2c1	inactive
C[C@@H](NS(=O)(=O)C1CN(C(=O)OCc2ccccc2)C1)C(N)=O	inactive
O=C(C[C@@H]1CC[C@@H]2[C@H](COC[C@@H](O)CN2S(=O)(=O)c2cccc(Cl)c2)O1)N1CCOCC1	inactive
COc1ccc(CN(C)C[C@@H]2OCCCC[C@@H](C)Oc3ccc(NC(=O)CCC(F)(F)F)cc3C(=O)N([C@H](C)CO)C[C@H]2C)cc1	inactive
C[C@@H]1CN([C@H](C)CO)C(=O)Cc2cc(NC(=O)Nc3ccc(C(F)(F)F)cc3)ccc2O[C@H]1CN(C)CC1CCCCC1	active
C[C@H](CO)N1C[C@H](C)[C@H](CN(C)C(=O)C2CCOCC2)Oc2cc(C3=CCCC3)ccc2S1(=O)=O	inactive
COCN(C#N)c1nc(N(C)C)nc(N(C)C)n1	inactive
Cn1cnc(-c2cc3nccc(Oc4ccc(NC(=S)NC(=O)Cc5ccccc5)cc4F)c3s2)c1	inactive
Cc1noc(C)c1S(=O)(=O)Nc1ccc2c(c1)CC(=O)N([C@@H](C)CO)C[C@H](C)[C@H](CN(C)CC1CC1)O2	inactive
N#C/C(=C\c1cccs1)c1csc2ccc(Cl)cc12	inactive
